Experimental data published in the supplement of paper PMC3334620.
Whole data set: some 33,000 sequences, median “E-score (-0.5 to 0.5)” near -0.012, cut for the highest 2% near 0.29. The list shows a part of the results.

biological target: T1, Ybr033w (UniProt P38073); experiment: PBM E-score (8-mer binding enrichment) (E-score (-0.5 to 0.5)); higher = stronger / more preferred TF binding; most listed sequences are background and not binding sites; conditions: protein concentration: 200 nM; construct: GST-full length
T1 sequence: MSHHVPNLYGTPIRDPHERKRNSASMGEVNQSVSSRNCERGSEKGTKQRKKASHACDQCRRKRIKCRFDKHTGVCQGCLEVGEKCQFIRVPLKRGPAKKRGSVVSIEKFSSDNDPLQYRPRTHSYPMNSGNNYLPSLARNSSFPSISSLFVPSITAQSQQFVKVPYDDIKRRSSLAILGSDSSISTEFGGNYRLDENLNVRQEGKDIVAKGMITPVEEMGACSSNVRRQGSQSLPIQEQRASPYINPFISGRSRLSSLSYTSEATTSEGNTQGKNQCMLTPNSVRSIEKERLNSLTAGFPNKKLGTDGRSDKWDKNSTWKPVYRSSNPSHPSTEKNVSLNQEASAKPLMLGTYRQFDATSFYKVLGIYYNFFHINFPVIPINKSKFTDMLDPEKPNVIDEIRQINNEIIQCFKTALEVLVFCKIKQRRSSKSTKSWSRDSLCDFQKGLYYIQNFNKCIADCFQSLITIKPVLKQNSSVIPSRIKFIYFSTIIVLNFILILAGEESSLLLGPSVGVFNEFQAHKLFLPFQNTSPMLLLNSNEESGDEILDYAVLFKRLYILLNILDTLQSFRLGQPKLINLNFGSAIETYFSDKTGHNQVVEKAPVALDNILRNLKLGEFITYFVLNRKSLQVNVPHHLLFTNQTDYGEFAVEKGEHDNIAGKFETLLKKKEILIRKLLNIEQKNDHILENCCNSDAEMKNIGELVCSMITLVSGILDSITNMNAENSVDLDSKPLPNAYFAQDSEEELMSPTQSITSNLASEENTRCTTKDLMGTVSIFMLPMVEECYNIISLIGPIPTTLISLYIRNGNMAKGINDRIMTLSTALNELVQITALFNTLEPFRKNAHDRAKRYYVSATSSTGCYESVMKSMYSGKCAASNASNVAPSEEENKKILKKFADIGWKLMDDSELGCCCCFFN
Outline: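 Bound GST-tagged yeast transcription factors, applied at about 100-200 nM to double-stranded universal all-10-mer Agilent arrays, were detected with fluorescent anti-GST. Scans were normalised with masliner. A modified Wilcoxon-Mann-Whitney statistic, the E-score, was assigned to each ungapped eight-base word pooled with its reverse complement by the Universal PBM Analysis Suite.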

Sequence | PBM E-score
AGTCTACC | -0.035
ACTGTTAG | -0.00766
GCTCCGCC | -0.0466
GCACGAGC | -0.195
ACGTTCGG | -0.0866
AGAAACAT | 0.2
GCATAGAC | -0.156
CTCAACTC | 0.0995
AGAAACTC | 0.179
CCGGTCAC | -0.258
CCAACGGA | -0.233
ACCATCGG | -0.118
AGCGCACT | -0.155
ATACAGGA | -0.0061
GCTACTCA | 0.149
AACGATCT | 0.00325
ACCGCGTA | -0.0911
ATTCAGCA | 0.114
CTTTTCAA | 0.22
CAAAGAGC | -0.165
GGAGCCCC | -0.358
GAAAATAC | 0.252
TGCCCCAA | -0.0984
CGTAGACA | -0.208
GAGGTTAC | -0.0615

Sequence | PBM E-score
CCTTGTGC | -0.278
CGCCGAGC | -0.0974
CCGTAAAG | 0.0143
AAATCATG | 0.167
CTGGTGGA | -0.0887
GGCGCCCA | -0.0169
CTAAATGC | 0.0943
GGGGGAAA | -0.124
AAAGGGAA | 0.0211
CAGTATAC | 0.0935
AACGAATG | 0.16
CGGGGTTC | -0.137
CAAATACG | -0.0196
ATCCGAGG | 0.0509
AGGTTGCA | 0.112
CAGGCCAG | -0.142
CCAGGAGG | -0.024
AAATCGAA | 0.0838
CAGACAAG | -0.0449
GATGGTTA | -0.0287
ATTAGAAG | 0.123
CAACAGAA | 0.0731
AAAGGTAC | -0.00741
AATCGATG | 0.217
CATGTCAC | 0.0223

Sequence | PBM E-score
ATACTGAG | 0.267
TCCCCCGA | -0.23
CCAAAATA | 0.182
ATGCGAAG | 0.0252
AACATGCC | -0.008
ATTACCAA | 0.116
CCGCTACA | -0.113
GCAAGTCC | -0.1
CTCGGGCA | 0.0151
ATGACTCC | 0.0591
CGAGCCGA | -0.0277
AGACCATA | 0.0684
CTTAGTGA | -0.00553
GGTACCCA | -0.221
AAGGGCCG | -0.287
AGCAGCCA | -0.0655
TAATGTAA | 0.239
AGAAACCC | 0.0994
CCCTGAAG | -0.268
GACTTGAA | -0.00018
CTCTCCTC | -0.269
ACCCGCGG | -0.055
CGTTCTAC | 0.00885
AGAAAGCC | -0.0566
AAAGGGAT | 0.17

Sequence | PBM E-score
AGCCTCGA | -0.185
GCTTACAA | 0.0503
AGTCACCG | -0.104
TACCCGCA | 0.232
CAATGGAG | -0.0219
CAAGAAAA | 0.219
CGGTGGAC | -0.22
CCTCCTCC | -0.152
GATGTGAC | -0.183
GATCGATC | -0.205
CACTCGAG | -0.0246
GACATGGA | 0.112
CCTGGAGA | -0.0423
CCCTGGGA | -0.336
CAACTACA | 0.213
ATGTACCA | 0.0232
GCCAGCCA | -0.265
CGTGGTAG | -0.0476
AAATCCGA | 0.12
GTGACCTA | -0.0959
CGCTGATC | -0.00384
CCCCATAC | -0.187
CCTTGTAC | 0.0941
AGTTTTGG | 0.191
AGCTCAGG | -0.00046

Sequence | PBM E-score
CATCCAGG | -0.088
GGAACCAC | -0.0152
AGCGTATA | 0.0836
AAGCCGGC | -0.221
CACTATAA | 0.167
ATATACTC | 0.197
AGCAATTG | 0.025
ACGCAGCT | -0.095
GCGGTCTA | -0.0156
CCAAGGTC | -0.0654
AACGTTCA | -0.15
GGTAGGAA | 0.0614
ATCAAAAT | 0.159
CATGCGTA | 0.125
AGGGCATC | -0.156
AATACTAA | 0.247
TGCACGCA | -0.0498
CCAAGAAA | 0.167
CCGTCGCC | -0.247
ACGGACTA | 0.00803
GGTGAATA | 0.127
AAACAGAC | 0.091
ATCTGATC | 0.0616
CGCTTAAG | -0.101
TAACCGAA | -0.0314

Sequence | PBM E-score
CGATTCTA | 0.0437
CTGCCAAA | -0.00656
CTACCGCC | -0.149
AGTCCACT | -0.0622
AAGAAGGT | 0.0392
AAAAGTCC | 0.138
AAGAACGG | -0.182
AGAAGGCC | -0.018
AAGTCATC | -0.154
AGACCAAG | 0.152
ACCGGTAC | -0.199
GAATGCAA | 0.153
TGGAGGAA | 0.102
CGATAAGC | -0.167
AGATAGGG | -0.205
GAAAATGA | 0.085
AATAATGA | 0.247
ATGCGAAT | 0.105
CCTTAGCC | -0.172
TCTAAAGA | 0.0913
ACGGGCAC | -0.232
CCAGTCAA | -0.0612
AACGGATA | 0.227
ACTCCGGA | 0.249
AACCTTAT | 0.0299

Sequence | PBM E-score
AATAGATC | 0.251
CGCGAGGC | -0.0897
AGAGCAAG | 0.124
ACACGAGT | -0.135
GGCCACCA | -0.11
CGTCCATA | -0.042
GCGGTATA | 0.0766
CGGAATTA | 0.407
CTATATAC | 0.26
CCAACAGG | -0.121
CCCGTTCA | -0.202
ACCTGATA | 0.107
TTGACAAA | 0.23
AAAGGGGG | -0.306
GTGGCTAA | 0.0232
ACAATCGT | -0.172
GGTACTAA | 0.125
CCAAGCGG | -0.209
ACGATCCC | -0.257
GGAAGTTA | 0.118
AGGCATCC | -0.174
ATTTCCCA | 0.236
